Source: the supplement of paper PMC12217912
The list shows a part of the results. The full chains were built here from the parent and the listed change. Inactive controls read about 0.05.

B1: TEV protease; numbered along this chain (parent)
chain: MGESLFKGPRDYNPISSSICHLTNESDGHTTSLYGIGFGPFIITNKHLFRRNNGTLVVQSLHGVFKVKDTTTLQQHLVDGRDMIIIRMPKDFPPFPQKLKFREPQREERICLVTTNFQTKSMSSMVSDTSCTFPSGDGIFWKHWIQTKDGQCGSPLVSTRDGFIVGIHSASNFTNTNNYFTSVPKNFMELLTNQEAQQWVSGWRLNADSVLWGGHKVFMVKPEEPFQPVKEATQL

Variants of: B1
Assay: raw area under fraction-flipped curve 0-4 h after induction (AUC4h, not background-subtracted), DNA-recorder readout of cleavage of the substrate (dimensionless); higher = more cleavage of the substrate by the protease variant
Details: temperature: 34 °C; time window: 0-4 h after rhamnose induction
Experimental: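 In vivo DNA recorder in E. coli TOP10(DE3) ΔrhaA at 34 °C. Each TEVp single-site mutant (parent TEVp 0) is paired with a single-site variant of the 7-mer TEVs (canonical ENLYFQ|S). The substrate sits between flexible linkers in a Bxb1-sfGFP-TEVs-SsrA fusion, so cleavage stabilises Bxb1 and speeds flipping of a recombination array, read by NGS. The value is the raw area under the fraction-flipped curve over 0-4 h after rhamnose induction (AUC4h), with ≥20 reads per time point. It is not background-subtracted; inactive controls average about 0.047.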
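Note: Bxb1 expression induced with 0.2% (w/v) L-rhamnose at OD600 near 0.5, cultures sampled hourly, flipped fraction per protease–substrate barcode pair counted by paired-end Illumina sequencing.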

Variant | area with substrate ENAYFQS | area with substrate ENCYFQS | area with substrate ENDYFQS | area with substrate ENEYFQS | area with substrate ENFYFQS | area with substrate ENGYFQS | area with substrate ENHYFQS | area with substrate ENMYFQS | area with substrate ENNYFQS | area with substrate ENPYFQS | area with substrate ENQYFQS | area with substrate ENRYFQS | area with substrate ENSYFQS | area with substrate ENTYFQS | area with substrate ENVYFQS | area with substrate ENKYFQS | area with substrate ENWYFQS | area with substrate ENIYFQS | area with substrate ENYYFQS
P96I | 0.0538 | 0.0667 | 0.0562 | 0.052 | 0.0563 | 0.0588 | 0.0537 | 0.0855 | 0.0432 | 0.0645 | 0.0602 | 0.0509 | 0.0321 | 0.059 | 0.0687 |  |  |  | 
K98D | 0.0685 | 0.0629 | 0.0622 | 0.0639 |  | 0.0559 | 0.0479 |  |  |  | 0.0609 |  | 0.062 | 0.0837 | 0.0829 |  |  |  | 
L99F | 0.0721 | 0.0582 |  |  |  |  | 0.0594 | 0.0844 | 0.0541 |  | 0.0574 |  | 0.0552 |  | 0.0883 | 0.0552 |  |  | 
L99G | 0.0653 |  |  | 0.0608 | 0.0719 |  |  |  |  | 0.0583 |  | 0.0535 | 0.0538 | 0.0596 | 0.0629 |  |  |  | 
K100C | 0.0587 | 0.0549 | 0.0744 | 0.0832 | 0.071 | 0.0723 |  |  | 0.0506 | 0.05 | 0.0476 | 0.0577 | 0.131 | 0.0664 | 0.0736 | 0.0625 |  |  | 
F101C | 0.0523 |  | 0.0656 | 0.0538 | 0.0538 | 0.0759 | 0.0591 | 0.0598 | 0.059 | 0.0661 | 0.0614 | 0.0587 |  | 0.0621 | 0.047 | 0.06 | 0.0583 |  | 
F101L | 0.057 | 0.0633 | 0.0559 | 0.0641 |  | 0.0485 |  | 0.0719 |  |  | 0.0526 |  | 0.063 | 0.0607 | 0.066 | 0.0463 |  | 0.0975 | 0.0782
Q105S | 0.0662 |  | 0.0602 |  | 0.0713 |  |  | 0.0846 |  |  | 0.0519 |  | 0.0551 |  | 0.086 | 0.0581 | 0.0549 | 0.102 | 
R106Y | 0.0662 | 0.0724 | 0.0585 | 0.0816 | 0.0634 | 0.071 | 0.0483 |  | 0.0597 | 0.0678 | 0.0592 | 0.0535 | 0.0559 | 0.0694 | 0.089 |  | 0.0496 |  | 0.0577
E107P | 0.0804 |  |  | 0.0575 |  |  |  |  | 0.0711 | 0.068 | 0.0586 | 0.0438 | 0.116 |  | 0.0727 | 0.0464 | 0.0592 |  | 0.0705
E107R | 0.0726 | 0.0744 | 0.0508 | 0.0499 | 0.0557 |  | 0.0741 | 0.0755 | 0.0516 | 0.0575 | 0.0741 |  | 0.0674 | 0.0778 | 0.0646 |  |  | 0.0841 | 0.0337
R109V | 0.0615 | 0.0551 | 0.068 | 0.0622 |  | 0.0658 |  | 0.0774 | 0.0554 |  | 0.0586 | 0.0537 |  | 0.0806 | 0.0779 | 0.063 |  |  | 0.0408
I110L | 0.0627 | 0.0668 | 0.0375 |  | 0.0446 | 0.0525 | 0.0509 |  | 0.0707 | 0.0062 | 0.0533 | 0.072 | 0.0637 | 0.054 | 0.08 | 0.0654 |  | 0.124 | 
I110Y | 0.0361 |  | 0.067 |  |  | 0.0464 |  |  |  |  | 0.0372 |  |  |  | 0.0622 | 0.0766 |  |  | 
C111P | 0.0455 | 0.0472 | 0.0558 |  |  | 0.0571 | 0.0663 | 0.0524 |  |  | 0.0593 | 0.0294 |  |  |  |  |  | 0.0443 | 
V113I | 0.0608 | 0.0435 | 0.0423 | 0.0702 | 0.0573 |  |  |  | 0.0662 | 0.0809 |  |  | 0.0585 |  | 0.0428 |  | 0.052 |  | 0.0534
V113R | 0.0619 | 0.0537 | 0.0652 |  | 0.0486 | 0.0668 | 0.0362 | 0.0648 | 0.0638 | 0.0629 | 0.0577 | 0.0482 | 0.0541 | 0.0581 | 0.063 | 0.0535 | 0.0737 | 0.0667 | 
T114E | 0.089 |  | 0.0669 | 0.0625 |  | 0.07 | 0.0633 |  | 0.0563 |  | 0.0587 | 0.0546 | 0.0612 |  |  | 0.0606 | 0.0508 |  | 
T115A | 0.0648 |  | 0.0575 | 0.0696 |  | 0.0581 | 0.0445 |  |  |  |  |  |  | 0.0597 |  |  |  |  | 
T115L | 0.0552 | 0.0653 | 0.0582 | 0.0682 |  | 0.0547 | 0.0635 |  | 0.0628 |  | 0.0639 | 0.0616 | 0.0494 |  | 0.0764 |  | 0.0583 | 0.113 | 
F117A | 0.0615 |  |  | 0.064 | 0.0758 | 0.096 | 0.0623 |  | 0.052 |  |  | 0.0557 |  |  | 0.0785 |  |  |  | 
F117C | 0.0641 | 0.0699 | 0.0637 | 0.0654 | 0.0608 |  |  | 0.0719 | 0.0636 | 0.055 | 0.0723 | 0.0721 | 0.0625 | 0.0602 | 0.0715 | 0.0777 | 0.0114 |  | 0.0607
F117S | 0.0729 | 0.0551 | 0.063 | 0.0717 |  | 0.0672 | 0.0529 | 0.0795 | 0.0433 | 0.0419 |  |  | 0.0547 | 0.0541 |  |  |  | 0.124 | 0.051
Q118D | 0.0536 | 0.0744 | 0.085 |  |  |  | 0.0717 |  | 0.0928 |  | 0.0623 | 0.0567 | 0.0673 |  | 0.0813 | 0.0737 |  |  | 0.0638
Q118I | 0.0434 | 0.0703 | 0.0545 | 0.0651 | 0.0623 | 0.0661 |  | 0.0793 | 0.0563 |  |  | 0.0736 | 0.0555 |  |  |  | 0.0768 | 0.121 | 
Q118P | 0.0604 |  | 0.0432 | 0.0519 |  | 0.0753 | 0.0609 | 0.0775 | 0.0516 |  | 0.0601 |  |  |  |  |  |  | 0.104 | 0.0616
T119D | 0.0644 | 0.0763 | 0.0695 |  |  | 0.0575 | 0.0362 | 0.0858 |  | 0.069 | 0.0526 |  | 0.068 |  | 0.0729 |  | 0.0539 |  | 
T119V | 0.0616 | 0.0629 | 0.0576 | 0.0557 |  |  |  | 0.0834 | 0.0719 | 0.0649 |  | 0.066 | 0.0664 |  | 0.0756 |  | 0.0098 |  | 
K120S | 0.0619 | 0.0699 | 0.0645 | 0.0578 | 0.0446 | 0.0492 |  |  | 0.0774 | 0.0483 | 0.0624 | 0.0619 | 0.0616 | 0.0698 | 0.0925 |  | 0.0567 | 0.111 | 
